According to PMC4336329 (PLoS ONE, 2015):
In all, about 310,000 compounds went through this assay and about 2,200 (0.71%) showed an effect of 50% or more. The effect is printed as a negative number. This is one part of the list.

Target: human ether-à-go-go-related gene (hERG) potassium channel (human, UniProt Q12809)
Experiment: primary screen, population patch clamp on CHO cells stably expressing hERG

Sequence of human ether-à-go-go-related gene (hERG) potassium channel (Q12809 whole entry, looked up): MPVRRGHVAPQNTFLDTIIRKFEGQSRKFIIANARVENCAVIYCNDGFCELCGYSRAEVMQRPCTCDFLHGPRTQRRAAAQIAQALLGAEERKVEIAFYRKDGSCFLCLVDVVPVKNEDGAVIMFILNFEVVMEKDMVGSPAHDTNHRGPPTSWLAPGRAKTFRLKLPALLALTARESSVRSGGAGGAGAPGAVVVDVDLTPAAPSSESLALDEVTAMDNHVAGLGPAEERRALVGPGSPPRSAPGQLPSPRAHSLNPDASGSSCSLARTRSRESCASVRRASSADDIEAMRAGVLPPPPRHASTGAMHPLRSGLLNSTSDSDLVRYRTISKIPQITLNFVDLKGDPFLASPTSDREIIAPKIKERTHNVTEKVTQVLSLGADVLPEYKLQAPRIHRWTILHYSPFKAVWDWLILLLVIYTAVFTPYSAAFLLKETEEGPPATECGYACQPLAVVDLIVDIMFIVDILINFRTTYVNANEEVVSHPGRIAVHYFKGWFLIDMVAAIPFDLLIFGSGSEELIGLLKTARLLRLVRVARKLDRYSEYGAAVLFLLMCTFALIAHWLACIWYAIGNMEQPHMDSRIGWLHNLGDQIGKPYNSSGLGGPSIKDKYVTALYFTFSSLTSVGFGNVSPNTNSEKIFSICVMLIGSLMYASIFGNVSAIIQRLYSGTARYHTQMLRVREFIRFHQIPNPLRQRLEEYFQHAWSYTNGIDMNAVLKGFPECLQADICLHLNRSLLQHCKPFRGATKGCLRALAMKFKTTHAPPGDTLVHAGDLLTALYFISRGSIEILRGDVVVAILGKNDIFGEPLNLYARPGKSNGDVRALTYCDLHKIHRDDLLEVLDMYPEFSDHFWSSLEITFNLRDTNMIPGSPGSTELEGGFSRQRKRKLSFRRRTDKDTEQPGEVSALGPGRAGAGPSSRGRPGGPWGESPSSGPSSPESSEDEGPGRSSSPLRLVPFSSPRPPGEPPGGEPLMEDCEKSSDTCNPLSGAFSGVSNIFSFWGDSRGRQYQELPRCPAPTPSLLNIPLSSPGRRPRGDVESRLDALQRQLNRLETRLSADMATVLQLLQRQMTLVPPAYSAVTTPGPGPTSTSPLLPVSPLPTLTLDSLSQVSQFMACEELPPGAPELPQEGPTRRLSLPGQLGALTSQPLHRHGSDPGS

SMILES	hERG current change (%, negative = inhibition) at 1uM
NC(=O)N/N=C/c1ccccc1OC(=O)c1ccccc1Br	21.3%
CC(=O)Nc1cc(C(=O)N2CCC3(CC2)OCCO3)ccc1S(=O)(=O)c1ccc(Cl)cc1	8.97%
COc1cccc(N2CCN(C(=O)CCC(=O)N3CCOc4ccc(C)cc43)CC2)c1	1.11%
O=C(Cn1cnnn1)NC1CCCN(Cc2ccccc2F)C1 (stereo not shown)	13.9%
Cc1cc(C)n2nc(S(=O)(=O)Nc3c(Cl)cccc3Cl)nc2n1	12.7%
O=C(COc1ccc2ccc(=O)oc2c1)N1CC[C@@]2(O)CCCC[C@H]2C1	10.1%
COc1cc(NC(=O)c2ccc(C)cc2)ccc1NC(=O)c1cc2ccccc2o1	14.1%
O=S(=O)(c1ccc(F)cc1)N1CCN(c2ncnc3c2cnn3-c2ccccc2)CC1	9.52%
CCO/C=C1\SC(=S)N(c2ccc(Cl)cc2)C1=O	23%
COc1ccc(OC)c(S(=O)(=O)N2CCC(C(=O)NC(C)c3ccccc3)CC2)c1 (stereo not shown)	1.22%
O=C(OCCOCCN=C1NS(=O)(=O)c2ccccc21)c1ccncc1	16.3%
COc1ccc(CCNC(=O)CC(C)S(=O)(=O)c2ccc3c(c2)NC(=O)CO3)cc1OC (stereo not shown)	11.8%
N#Cc1c(N)n(CCc2ccc(F)cc2)c2nc3ccccc3nc12	19.9%
CC(=O)C1=C(O)C(=O)N(Cc2ccco2)C1c1cccc(F)c1 (stereo not shown)	11.9%
Cc1nc2sc(C(c3ccco3)N3CCOCC3)c(O)n2n1 (stereo not shown)	14.2%
O=C(Nc1ccc2snnc2c1)N1CCCCC1	8.63%
Cc1oc(S(=O)(=O)N2CCCC2)cc1C(=O)Nc1ccc(F)cc1	5.08%
Cc1nc2cc(Cl)ccc2n1-c1ccccc1	3.15%
COc1cc2c(cc1OC)C(c1ccccc1Cl)N(C)CC2 (stereo not shown)	4.56%
Cc1ccc2oc(=O)c3cnn(CC(=O)NCCN4CCOCC4)c3c2c1	9.71%
COCCNC(=O)CCN1N=C(c2ccccc2)CCC1=O	13.3%
CCCc1nnc(SCC(=O)Nc2ccc(Cl)cc2Cl)o1	11.6%

SMILES	hERG current change (%, negative = inhibition) at 1uM
CC(C)NC(=O)CN1CCN(Cc2nc(C(c3ccccc3)c3ccccc3)no2)CC1	-7.13%
CCN(CC)CCn1c2ccccc2c2cnc(N)c(C#N)c21	-27.4%
Cc1ccc(S(=O)(=O)[N-]c2nc3ccccc3nc2-[n+]2cc(C)cc(C)c2)cc1	14.7%
COC(=O)Cn1ncc2c3ccccc3n(Cc3ccccc3)c2c1=O	8.5%
CCN(CC(=O)Nc1c(F)cccc1F)C(=O)c1ccc(Cl)c(S(=O)(=O)N2CCCCC2)c1	3.56%
Cc1cccc(N(C(=O)CNC(=O)c2ccco2)C(C(=O)NCC2CCCO2)c2ccccc2)c1 (stereo not shown)	5.57%
CC(=O)N1CCC(=NNc2nc3ccccc3[nH]2)CC1.O=C(O)C(=O)O	11.6%
O=c1[nH]c(CSc2ccccn2)nc2c1oc1ccccc12	15.9%
O=C(COc1ccc2ccc(=O)oc2c1)NCCCn1ccnc1	5.03%
CCOC(=O)C1=C(CS(=O)(=O)c2ccccc2)NC(=O)NC1c1cccc(OC)c1 (stereo not shown)	13.7%
O=C(Cn1ccsc1=NC(=O)C(F)(F)F)c1ccccc1	11.2%
Cc1cccc(N(C)S(=O)(=O)c2nnc(NC(=O)c3ccco3)s2)c1	9.42%
O=c1[nH]c2ccccc2s1	10.6%
CN(C)CCCN(C(=O)COc1ccccc1)c1nc2c(Cl)cccc2s1.Cl	-45.5%
C=CCn1c(SCC(=O)NCC2CCCO2)nc2scc(-c3ccc(OC)cc3)c2c1=O (stereo not shown)	2.79%
COc1cccc(CNC(=O)Cc2ccc(-n3c(=O)[nH]c4ccccc4c3=O)cc2)c1	7.32%
CCOC(=O)[C@H]1NN=C(C(=O)OC)[C@@H]1c1ccccc1	5.98%
CCCCn1c(N)c(N(CCC(C)C)C(=O)COC(=O)c2cccnc2OCC)c(=O)[nH]c1=O	7.85%
Cc1oc2c(CN3CCOCC3)c(O)ccc2c(=O)c1-c1ccccc1	6.91%
Cc1ccc(S(=O)(=O)N/N=C/c2ccc(O)cc2O)cc1[N+](=O)[O-]	1.14%
O=C(Nc1nncs1)c1cccnc1Cl	8.58%
